In patent US11000038B2, “Pyridone compounds and agricultural and horticultural fungicides containing the same as active ingredients” (priority 2017, dated 2021):

Assays:
[1] = tested on: barley powdery mildew fungi (Blumeria graminis f. sp. hordei); experiment: Test Example D: barley powdery mildew, spray treatment of barley plants; conditions: barley powdery mildew, spray treatment
[2] = tested on: grape downy mildew fungus (Plasmopara viticola); experiment: Test Example G: grape downy mildew, spray treatment of grape plants; conditions: grape downy mildew, 250 ppm spray, 7 to 10 days after inoculation
[3] = tested on: gray mold fungi (Botrytis cinerea); experiment: Test Example B: tomato gray mold, spray treatment of tomato plants; conditions: tomato gray mold, spray treatment
[4] = tested on: wheat brown rust fungi (Puccinia recondita); experiment: Test Example E: wheat brown rust, spray treatment of wheat plants; format: in vivo; conditions: wheat brown rust, spray treatment
[5] = tested on: cabbage Alternaria sooty spot fungi (Alternaia brassicicola); experiment: Test Example C: cabbage Alternaria sooty spot, spray treatment of cabbage plants; format: in vivo; conditions: cabbage Alternaria sooty spot, spray treatment
Source text: [Test Example C] Cabbage Alternaria Sooty Spot
Test plants (cabbage variety: Shikidori) were cultivated until the cotyledons extended after the sowing of seeds.
<Control Value> Control value=100{1−(n/3)}

C#CCOc1ccc(CC)c(-n2cc(C)c(=O)c(C)c2-c2c(F)cccc2F)c1 [Compound 625]
Test D control value [1]: H (H shows the control value of more than 50%)
Test G control value [2]: L (L shows the control value of 50% or less)
Test B control value [3]: H (H shows the control value of more than 50%)
Test E control value [4]: H (H shows the control value of more than 50%)
Test C control value [5]: H (H shows the control value of more than 50%)

CCc1ccc(OC)cc1-n1cc(Br)c(=O)c(CC)c1-c1c(F)cccc1F [Compound 627]
Test D control value [1]: H (H shows the control value of more than 50%)
Test G control value [2]: H (H shows the control value of more than 50%)
Test B control value [3]: H (H shows the control value of more than 50%)
Test E control value [4]: H (H shows the control value of more than 50%)
Test C control value [5]: H (H shows the control value of more than 50%)

CCc1ccc(OC)cc1-n1cc(C)c(=O)c(CC)c1-c1c(F)cccc1F [Compound 628]
Test D control value [1]: H (H shows the control value of more than 50%)
Test G control value [2]: L (L shows the control value of 50% or less)
Test B control value [3]: H (H shows the control value of more than 50%)
Test E control value [4]: H (H shows the control value of more than 50%)
Test C control value [5]: H (H shows the control value of more than 50%)
